We go through 69 molecules from PubChem BioAssay AID1347073 (National Center for Advancing Translational Sciences (NCATS), 2019).

SMILES strings stand for the structures. Screen size: about 45,000 compounds; about 200 (0.44%) were called active. Inconclusive results (about 7%) are left out. Calls come from the whole dose curve; as a rule, active = well fitted activation curve with a large enough effect; inconclusive = small, poorly fitted or top-dose-only effect; inactive = no such curve, though single readings can be large or run the other way. The list shows a part of the results.

The nature of this test: qHTS of TDP-43 Inhibitors: NCGC Sytravon Library Screen. Note: 0% is about no effect; nearly all actives have a fitted effect of over 55% in size. Conditions: yeast TDP-43 toxicity rescue, BacTiter-Glo growth, 24 h; series mostly up to 46.1 µM; growth rescue (activation): at the top concentration. The method, boiled down: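 TDP-43-expressing yeast, pregrown in raffinose, seeded at OD600 0.02 in galactose medium with compound for 24 hr at 30 deg C. Growth read by BacTiter-Glo luminescence, so rescue of toxicity appears as activation.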
(In qHTS, concentration-response curves come from the screen itself.)
For the molecule `CCN1CCCc2cc(CN(CCN3CCOCC3)C(=S)Nc3cccc(Cl)c3)ccc21`, the “growth rescue (activation)” value was inactive: -10.4%.

Turning to `CN(C)S(=O)(=O)c1ccc(Cl)c(NC(=O)CN2C(=O)NC3(CCCC3)C2=O)c1`, the “growth rescue (activation)” value is inactive: -4.69%.

With `Cc1ccc(S(=O)(=O)/N=C(/c2ccc(F)cc2)N(C)C)cc1`, the “growth rescue (activation)” value was inactive: 2.85%.

Consider `COC(=O)c1ccc(C(=O)OC)c(NC(=O)CSc2n[nH]c(N)n2)c1`, for which the “growth rescue (activation)” value was inactive: 2.71%. The same measure for `O=C(CN1CCN(Cc2ccc(Cl)cc2)CC1)N1CCc2ccccc21`: inactive: 1.49%; for `O=c1/c(=C/c2ccc(O)c([N+](=O)[O-])c2)sc2nc3ccccc3n12`: inactive: -6.07%; for `COc1ccccc1N(CC(=O)NCCN1CCOCC1)S(=O)(=O)c1ccccc1`: inactive: -2.08%. On to `O=C(NCC1CCCO1)c1nc(Cn2ccc([N+](=O)[O-])n2)no1` (centres undefined), for which the “growth rescue (activation)” value was inactive: 8.2%. In the case of `OC(CNCC1CCCCC1)COc1ccccc1` (centres undefined), the “growth rescue (activation)” value was inactive: -2.62%. As for `O=C(NCCc1ccccc1)c1ccc2c(c1)OCO2`, the figure is inactive: -4.96%. On to `Cc1cccc(-c2nc3c(c(=O)c4ccccc4n3C)c(=O)n2-c2ccccc2)c1`, for which the “growth rescue (activation)” value was inactive: 2.5%.

Take `Cc1cc(=O)[nH]c(N/N=C/c2ccc(-c3ccc([N+](=O)[O-])cc3)o2)n1`: the “growth rescue (activation)” value was inactive: -0.0333%. The same measure for `O=C(CCn1c(=O)c2sccc2n(Cc2cccc(F)c2)c1=O)NCc1ccc2c(c1)OCO2`: inactive: 12.4%. In the case of `Cc1cc(C)c(C(=O)COC(=O)CN2C(=O)NC3(CCCC3)C2=O)cc1C`, the “growth rescue (activation)” value is inactive: 4.19%.

For the molecule `COc1ccc(C(=O)NCCNC(=O)c2ccc(C)nc2)cc1`, the “growth rescue (activation)” value is inactive: -4.87%. Regarding `Cc1cc(C)n2c(SCC(=O)Nc3cc(S(=O)(=O)N(C)C)ccc3C)nnc2n1`, the “growth rescue (activation)” value is inactive: 11.4%.

Consider `COc1ccc(NC(=O)N2CCCC2C(=O)Nc2cccc(C)c2C)cc1` (centres undefined), for which the “growth rescue (activation)” value was inactive: 4.99%. For `O=C(CN1C(=O)COc2ccc(S(=O)(=O)N3CCCC3)cc21)NCc1ccccn1`, the “growth rescue (activation)” value is inactive: -13.7%. Consider `O=C(Nc1nc(-c2ccccc2)cs1)c1cccc(S(=O)(=O)N2CCN(Cc3ccccc3)CC2)c1`, for which the “growth rescue (activation)” value is inactive: 12.8%. For the molecule `Cc1ccc(Oc2ccc(Cl)cc2NC(=O)c2cnccn2)cc1`, the “growth rescue (activation)” value is inactive: -9.88%.

On to `Cc1cccc(OCCOC(=O)c2c(-c3ccccc3)noc2C)c1`, for which the “growth rescue (activation)” value was inactive: 13.7%.

In the case of `CCOC(=O)C1CCN(C(=O)CN2C(=O)NC(C)(c3ccc4cc(OC)ccc4c3)C2=O)CC1` (centres undefined), the “growth rescue (activation)” value is inactive: 4.15%. As for `CC(C)Cc1nc(C#N)c(N2CCC(C(N)=O)CC2)o1`, the figure is inactive: 5.34%; as for `COc1ccc(C(=O)Nc2c(-c3cccs3)c(=O)c3ccccc3n2C)cc1`, inactive: 0.999%; as for `O=C(NNC(=S)NCCc1ccccc1)c1ccc(Br)s1`, inactive: 16.4%. In the case of `O=C(Nc1nc2ccc([N+](=O)[O-])cc2s1)c1ccncc1`, the “growth rescue (activation)” value was inactive: 4.43%. As for `COc1cc(NC(=S)NC(=O)CC(C)C)ccc1NC(=O)c1cc2ccccc2o1`, the “growth rescue (activation)” value is inactive: 0.275%. For the molecule `Cc1cc(C(=O)CSc2nnc(-c3ccco3)o2)c(C)n1CC1COc2ccccc2O1` (centres undefined), the “growth rescue (activation)” value was inactive: 22.7%. As to `COc1ccc([N+](=O)[O-])cc1NC(=O)CCS(=O)(=O)c1ccc(Br)cc1`, the “growth rescue (activation)” value is inactive: -5.42%.

For `O=C(CN1CCSCC1)N/N=C/c1cccc(Cl)c1`, the “growth rescue (activation)” value is inactive: -1.38%.

With `COc1ccc(CNC(=O)c2cncc(Br)c2)cc1`, the “growth rescue (activation)” value is inactive: -15.1%. In the case of `Cc1cccc([N+](=O)[O-])c1NC(=O)CN(Cc1ccccc1)Cc1ccccc1`, the “growth rescue (activation)” value is inactive: -6.18%.

`O=C(NCCN1CCOCC1)C(=O)NCc1ccc2c(c1)OCO2`: the “growth rescue (activation)” value was inactive: -17%.

As to `Cc1ccc(CNS(=O)(=O)NCc2ccccc2F)cc1`, the “growth rescue (activation)” value is inactive: 19.8%. Consider `N#Cc1c(-c2ccccc2)cc(-c2ccccc2)nc1Br`, for which the “growth rescue (activation)” value was inactive: -19.4%.

Take `CCOc1ccc(NS(=O)(=O)c2ccc3[nH]c(=O)cc(C(=O)O)c3c2)cc1`: the “growth rescue (activation)” value is inactive: 0.49%. As for `Cc1ccc(NC(=O)C2CCN(S(=O)(=O)c3cccc4nonc34)CC2)cc1`, the figure is inactive: 16.5%; as for `COc1cccc(C(=O)N2CCN(C3CCCCC3)CC2)c1`, inactive: -6.21%. Regarding `Cc1cccc(N2C(=O)c3cccc4c(N)ccc(c34)C2=O)c1`, the “growth rescue (activation)” value was inactive: 7.01%. For `N#Cc1c(NC(=O)COC(=O)c2ccc(S(=O)(=O)N3CCCC3)cc2)sc2c1CCCCC2`, the “growth rescue (activation)” value was inactive: -4.63%. Regarding `O=C(/C=C/Nc1ccc(Oc2ccccc2Cl)cc1)c1ccco1`, the “growth rescue (activation)” value was inactive: 5.17%. The same measure for `Cc1nc(Cl)cc(N/N=C/c2ccc(O)cc2O)n1`: inactive: 0.669%; for `N#CC1(c2ccccc2)CCC(=O)N1Cc1ccccc1` (centres undefined): inactive: -9.25%. Take `CS(=O)(=O)c1ccc(C(=O)Nc2ccc(N3CCOCC3)cc2)c(Cl)c1`: the “growth rescue (activation)” value was inactive: -6.58%. `Cc1oc2ccc(O)c(CN(C)C)c2c1C(=O)c1ccccc1`: the “growth rescue (activation)” value is inactive: 0.641%. Turning to `CCc1nc2ccc(C(=O)Nc3ccc(C(N)=O)cc3)cn2c1N(C)CCC(C)C`, the “growth rescue (activation)” value is inactive: 7.06%.

As for `CC(=O)c1c(C)[nH]c(C(=O)CSc2nnc(N)s2)c1C`, the “growth rescue (activation)” value is inactive: 2.39%. With `O=C(/C=C/c1ccco1)N1CCN(c2ccc(F)cc2)CC1`, the “growth rescue (activation)” value is inactive: 10.1%. As for `O=C(CNCc1ccc(Cl)cc1)Nc1cccc(C(=O)O)c1`, the “growth rescue (activation)” value is inactive: -16.6%. On to `O=C(Cn1c2c(sc1=O)C1c3ccccc3OCC1CS2)Nc1ccc(Cl)c(Cl)c1` (centres undefined), for which the “growth rescue (activation)” value was inactive: -10.9%. For `COc1ccc2nc(N/C(=N/S(=O)(=O)c3cccs3)c3ccccc3Cl)sc2c1`, the “growth rescue (activation)” value was inactive: 2.42%. Consider `O=C(CN1CCN(C(=O)C2CCCO2)CC1)Nc1ccc(Cl)cc1` (centres undefined), for which the “growth rescue (activation)” value is inactive: 11.9%. For `CC(=O)n1c(C=Nc2ccc(Cl)cc2)c(O)c2ccccc21`, the “growth rescue (activation)” value was inactive: 7.97%.

As for `Cc1ccccc1NC(=S)N(Cc1ccco1)C(C)c1ccccn1` (centres undefined), the “growth rescue (activation)” value was inactive: -3.63%. The same measure for `COc1ccc(CNC(=O)C/C(C)=N/NC(=O)c2cnccn2)cc1`: inactive: 22.2%. The same measure for `O=C(NNc1ccccc1)Nc1ccccc1F`: inactive: -59.2%; for `CC1CCN(C(=O)c2ccc3c(c2)OCCO3)CC1`: inactive: 12%.

Consider `CCOc1ccccc1NC(=S)C(=C([O-])c1ccc2c(c1)OCCO2)[n+]1ccc(CC)cc1`, for which the “growth rescue (activation)” value was inactive: -3.24%. As for `CCC1CCCCN1S(=O)(=O)c1ccc(NC(=O)C2CC(=O)N(C(C)(C)C)C2)cc1` (centres undefined), the figure is inactive: 5.74%; as for `Cc1nc(Nc2ccc(Cl)cc2)c2oc3ccccc3c2n1`, inactive: 7.63%. As for `CCOc1ccc(CCNC(=O)COC(=O)c2ccccc2O)cc1OCC`, the “growth rescue (activation)” value was inactive: 21.4%. As to `COc1ccc2c(CSc3nnc(-c4cccnc4)n3-c3ccccc3F)cc(=O)oc2c1`, the “growth rescue (activation)” value is inactive: 3.07%. In the case of `COc1ccc(-n2cnnc2SCC(=O)N(C)c2ccccc2)cc1`, the “growth rescue (activation)” value was inactive: -21.7%. Take `Cc1ccc(NC(=O)C2C3C=CC(O3)C2C(=O)O)c(C)c1` (centres undefined): the “growth rescue (activation)” value was inactive: 3.29%. For `COc1cccc(OC)c1OCCCOc1ccc(C)cc1Br`, the “growth rescue (activation)” value was inactive: -12.1%.

Consider `CCn1c(SCC(=O)N/N=C/C=C/c2ccco2)nnc1-c1ccccc1`, for which the “growth rescue (activation)” value was inactive: -16.8%. Consider `CC(C)N1CCN(Cc2cnc(-c3ccccc3)s2)CC1CCO` (centres undefined), for which the “growth rescue (activation)” value was inactive: 0.449%. As for `O=C(NC1CCC(O)CC1)c1cc(Cl)c2c(c1)OCCO2` (centres undefined), the figure is inactive: 4.87%. Take `COC(=O)C(NC(=O)c1cccnc1Cl)C(C)C` (centres undefined): the “growth rescue (activation)” value was inactive: 26.9%.
